The results in this text go back to the antibiotic and cytotoxicity screens of Wong et al. (2023).

The test system of one assay is HSkMC. As to the kind of experiment: cytotoxicity call (relative viability < 0.9). Particulars: 10 µM.
A further assay relates to HepG2. As to the kind of experiment: cytotoxicity call (relative viability < 0.9). Particulars: 10 µM.
For another assay, the system named is S. aureus RN4220. As to the kind of experiment: growth inhibition call (relative growth <= 0.2). Particulars: 50 µM.

The other results are listed elsewhere or left out.

In the case of `COc1ccc(CN(C)C[C@H]2OCCCC[C@@H](C)Oc3ccc(NC(=O)Nc4ccc5c(c4)OCO5)cc3C(=O)N([C@@H](C)CO)C[C@@H]2C)cc1`, the cytotoxicity call in the assay on HSkMC and in the assay on HepG2 was “inactive” throughout. Moreover, the growth inhibition call in the assay on S. aureus RN4220 is “inactive”.
With `N[C@@H](CN(O)[N+][O-])C(=O)O`, the cytotoxicity call in the assay on HSkMC and with HepG2 was “inactive” each time. The growth inhibition call in the assay with S. aureus RN4220 is “inactive”.
Consider `C1CN(C2CCSCC2)CCN1`, for which the cytotoxicity call in the assay with HSkMC and in the assay with HepG2 was “inactive” throughout. Besides, the growth inhibition call in the assay on S. aureus RN4220 was “inactive”.
Regarding `COc1ccc(S(=O)(=O)N2C[C@H](O)COC[C@H]3O[C@@H](CC(=O)N[C@H]4CCN(Cc5ccccc5)C4)CC[C@@H]32)cc1`, the cytotoxicity call with HSkMC and with HepG2 was “inactive” in each case. In the assay on S. aureus RN4220, the growth inhibition call is “inactive”.
Regarding `C[C@H]1CN([C@@H](C)CO)C(=O)c2cccc(NC(=O)Nc3ccc(C(F)(F)F)cc3)c2O[C@@H]1CN(C)C(=O)Nc1ccc(F)cc1`, the cytotoxicity call with HSkMC and in the assay with HepG2 was “inactive” throughout. Further, the growth inhibition call with S. aureus RN4220 was “inactive”.
Take `C[C@H](O)C#Cc1ccc2c(c1)O[C@@H](CN(C)C(=O)c1ccncc1)[C@H](C)CN([C@H](C)CO)S2(=O)=O`: the cytotoxicity call in the assay on HSkMC and with HepG2 was “inactive” in each case. The growth inhibition call with S. aureus RN4220 is “inactive”.
On to `NC(=O)NO`, for which the cytotoxicity call with HSkMC and in the assay on HepG2 was “inactive” each time. Besides, the growth inhibition call in the assay with S. aureus RN4220 was “inactive”.
As for `C[C@H]1CN([C@@H](C)CO)C(=O)c2cc(NS(=O)(=O)c3cn(C)cn3)ccc2O[C@@H]1CN(C)S(C)(=O)=O`, the cytotoxicity call in the assay on HSkMC and in the assay with HepG2 was “inactive” each time. In addition, in the assay on S. aureus RN4220, the growth inhibition call was “inactive”.
Consider `C[C@@H]1CN([C@H](C)CO)C(=O)c2cc(NC(=O)c3ccncc3)ccc2O[C@H]1CN(C)S(=O)(=O)c1ccc(F)cc1`, for which the cytotoxicity call in the assay with HSkMC and in the assay with HepG2 was “inactive” throughout. Besides, the growth inhibition call in the assay with S. aureus RN4220 was “inactive”.
Consider `CC(C)(C)OC(=O)C[C@@H]1CC=CC[C@@H](CC(=O)NCCO)C(=O)N[C@@H](Cc2ccccc2)COC1=O`, for which the cytotoxicity call in the assay with HSkMC and in the assay with HepG2 was “inactive” in each case. Besides, the growth inhibition call in the assay on S. aureus RN4220 was “inactive”.
Consider `Cc1noc(C)c1NC(=O)Nc1ccc2c(c1)C(=O)N([C@@H](C)CO)C[C@@H](C)[C@@H](CN(C)S(=O)(=O)c1cccs1)OCCCC[C@@H](C)O2`, for which the cytotoxicity call with HSkMC and in the assay on HepG2 was “inactive” each time. The growth inhibition call with S. aureus RN4220 was “inactive”.
Turning to `c1csc(-c2nc3ccc4ccccc4c3c3c2CCC3)c1`, the cytotoxicity call with HSkMC and in the assay on HepG2 was “inactive” throughout. Besides, the growth inhibition call with S. aureus RN4220 was “inactive”.
For `Nc1nncn1C(=O)c1ccccc1F`, the cytotoxicity call in the assay with HSkMC and in the assay on HepG2 was “inactive” throughout. Also, the growth inhibition call with S. aureus RN4220 is “inactive”.
`CN1C(=O)c2cc(NC(=O)C3CCOCC3)ccc2OC[C@@H]2O[C@H](CC(=O)NCCc3ccncc3)CC[C@@H]21`: the cytotoxicity call in the assay with HSkMC and with HepG2 was “inactive” in each case. The growth inhibition call in the assay with S. aureus RN4220 is “inactive”.
Take `Cc1cc(=O)oc2c(O)c(O)ccc12`: the cytotoxicity call with HSkMC is “inactive”. Moreover, the cytotoxicity call in the assay on HepG2 was “active”. Moreover, the growth inhibition call with S. aureus RN4220 was “inactive”.
Take `COc1ccc(NC(=O)N(C)C[C@H]2Oc3ccc(NC(=O)Nc4ccc(C(F)(F)F)cc4)cc3C(=O)N([C@H](C)CO)C[C@@H]2C)cc1`: the cytotoxicity call with HSkMC and in the assay with HepG2 was “inactive” throughout. Further, the growth inhibition call in the assay on S. aureus RN4220 was “inactive”.
In the case of `CCCOc1cc(C)c(N)cc1C`, the cytotoxicity call in the assay on HSkMC and with HepG2 was “inactive” throughout. The growth inhibition call with S. aureus RN4220 is “inactive”.
`C[C@@H]1CNC[C@H](C)N1`: the cytotoxicity call in the assay on HSkMC and with HepG2 was “inactive” in each case. In addition, in the assay with S. aureus RN4220, the growth inhibition call is “inactive”.
Consider `C[C@@H]1CCCCO[C@@H](CN(C)C(=O)c2ccccc2)[C@H](C)CN([C@H](C)CO)C(=O)c2cc(NC(=O)NC3CCCCC3)ccc2O1`, for which the cytotoxicity call with HSkMC and in the assay on HepG2 was “inactive” throughout. For the same compound, the growth inhibition call with S. aureus RN4220 was “inactive”.
Regarding `Cc1ccc(S(=O)(=O)NC(=O)NN2CC3CCCC3C2)cc1` (stereo unspecified), the cytotoxicity call in the assay with HSkMC and with HepG2 was “inactive” throughout. For the same compound, in the assay with S. aureus RN4220, the growth inhibition call was “inactive”.
With `C[C@H]1CN([C@@H](C)CO)C(=O)c2cc(NC(=O)Cc3ccccc3)ccc2O[C@@H]1CN(C)C(=O)Nc1cccc2ccccc12`, the cytotoxicity call in the assay with HSkMC and in the assay with HepG2 was “inactive” in each case. Moreover, in the assay on S. aureus RN4220, the growth inhibition call is “inactive”.
As for `CN(C)CCN(Cc1ccccc1)c1ccccn1.O=C(O)CC(O)(CC(=O)O)C(=O)O`, in the assay on HSkMC, the cytotoxicity call was “inactive”. Further, the cytotoxicity call in the assay with HepG2 is “active”. In addition, in the assay on S. aureus RN4220, the growth inhibition call was “inactive”.
Regarding `CNC[C@@H]1OCCCC[C@H](C)Oc2ccc(NS(=O)(=O)c3cn(C)cn3)cc2C(=O)N([C@H](C)CO)C[C@@H]1C`, the cytotoxicity call in the assay on HSkMC and in the assay with HepG2 was “inactive” throughout. The growth inhibition call with S. aureus RN4220 was “inactive”.
`C[C@@H]1CCCCO[C@@H](CN(C)C(=O)c2ccccc2)[C@H](C)CN([C@H](C)CO)C(=O)c2cc(NC(=O)Nc3ccc4c(c3)OCO4)ccc2O1`: the cytotoxicity call in the assay on HSkMC and in the assay on HepG2 was “inactive” throughout. In addition, the growth inhibition call with S. aureus RN4220 is “inactive”.
With `C[C@@H]1CCCCO[C@@H](CN(C)C(=O)Nc2ccc(C(F)(F)F)cc2)[C@H](C)CN([C@@H](C)CO)C(=O)c2cc(NS(=O)(=O)c3ccc(F)cc3)ccc2O1`, the cytotoxicity call in the assay with HSkMC was “inactive”. The cytotoxicity call in the assay with HepG2 is “active”. Also, the growth inhibition call with S. aureus RN4220 is “inactive”.
Turning to `C[C@@H]1CN([C@H](C)CO)C(=O)c2cc(NC(=O)Cn3cnnn3)ccc2O[C@@H]1CN(C)C(=O)Nc1ccc2c(c1)OCO2`, the cytotoxicity call in the assay on HSkMC (human skeletal muscle cells) and with HepG2 was “inactive” throughout. The growth inhibition call with S. aureus RN4220 was “inactive”.
Take `C[C@@H]1CCCCO[C@H](CN(C)Cc2ccc(C(F)(F)F)cc2)[C@H](C)CN([C@@H](C)CO)C(=O)c2cc(NC(=O)Nc3ccc(C(F)(F)F)cc3)ccc2O1`: the cytotoxicity call with HSkMC and with HepG2 was “active” in each case. Also, the growth inhibition call in the assay on S. aureus RN4220 was “inactive”.
